This assay concerns the target T1, HMGB1(red) (Rattus norvegicus, UniProt P63159).
T1 construct: purchased HMGBiotech Srl, Milano, Italy
T1 sequence (P63159 2-215): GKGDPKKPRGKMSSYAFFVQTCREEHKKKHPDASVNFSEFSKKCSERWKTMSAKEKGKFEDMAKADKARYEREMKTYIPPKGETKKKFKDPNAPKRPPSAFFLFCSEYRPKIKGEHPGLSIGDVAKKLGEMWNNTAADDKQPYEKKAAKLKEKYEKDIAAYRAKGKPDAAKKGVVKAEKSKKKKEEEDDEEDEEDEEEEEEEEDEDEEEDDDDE
Kind of assay: In vitro cell migration assay, mouse 3T3 fibroblasts in modified Boyden chambers. The assay is classed as cell-based. Conditions: 1 nM or 0.2 nM HMGB1(red), 3 h. The protocol: In vitro cell migration assay: Mouse 3T3 fibroblast cells were used to assess the ability of His6-tagged Z variants to inhibit migration of cells in response to HMGB1 in modified Boyden Chambers (Neuroprobe Inc.). Mouse 3T3 fibroblasts were grown in Dulbecco's Modified Eagle Medium (DMEM, Gibco) with 10% fetal bovine serum (FBS, Gibco), 1% L-glutamine and antibiotics (Lonza). Prior to use, cells were centrifuged and the pellet was resuspended in DMEM (without FBS) without further washing. Polycarbonate filters (Neuroprobe Inc.; #PFA8) with 8 μm pores were coated with human fibronectin (Roche). Serum-free DMEM (negative control), DMEM containing 1 nM HMGB1(red) (positive control), and DMEM containing 1 nM HMGB1(red) plus Z variants ZH 01 (SEQ ID NO:1) and ZH 31 (SEQ ID NO:31) at a concentration of 10 or 100 ng/ml, were placed in the lower wells. A control polypeptide, Z04726 (SEQ ID NO:54), binding an irrelevant target, was used as negative control. boxA(red) (SEQ ID NO:51), a known competitor of HMGB1, was used at 1 nM concentration as positive control for inhibition of HMGB1 induced cell migration. Fibronectin-coated filters were placed so as to separate the lower and the upper wells, and 50000 3T3 cells were placed in the upper wells. The chambers were kept at 37° C. in a 5% CO2, humidified incubator for 3 h. The cells were then fixed with 100% ethanol (Sigma) and stained 20 minutes with Giemsa Stain (Sigma). The cells on the lower side of the filter were counted with a Leica DM LS2 microscope at 400× magnification.
ZH 30 was tested in a migration assay by performing an extended titration to allow IC50 calculations with 0.2 nM HMGB1(red) and lower concentrations of Z variants (0.1 ng/ml, 0.3 ng/ml, 1 ng/ml). A control polypeptide, ZZA4014 (SEQ ID NO:49), binding an irrelevant target and cloned and produced as described in Example 4, was used as negative control in this set up.
In vitro cell migration assay: The migration assay was performed essentially as described for monomeric Z variants in Example 3. One monomeric Z-ABD polypeptide, ZA3812 (SEQ ID NO:35); five heterodimeric polypeptides, ZZA4010 (SEQ ID NO:38), ZZA4011 (SEQ ID NO:39), ZZA4012 (SEQ ID NO:40), ZZA4013 (SEQ ID NO:41) and ZAZ4015 (SEQ ID NO:42); and three homodimeric polypeptides, ZZA4053 (SEQ ID NO:43), ZZA4054 (SEQ ID NO:44) and AZ4057 (SEQ ID NO:45), were tested in a migration assay by performing an extended titration, to allow IC50 calculations with 0.2 nM HMGB1 and reducing doses of polypeptides (0.1 nM, 0.3 nM, 1 nM). ZZA4014 (SEQ ID NO:49), binding an irrelevant target, was included as a negative control.

For the substance “ZH01: HMGB1 A-box binding Z variant, 58 amino acid residues, from primary phage display selection (VDAKYAKEDWDAFWEIIWLPNLTDAQQRAFIYKLEDDPSQSSELLSEAKKLNDSQAPK; Engineered HMGB1 binding polypeptide)”, the “inhibition of HMGB1 induced cell migration” value was “inhibit HMGB1 induced cell migration”.

Source of the values: patent US20220389066A1, “POLYPEPTIDES” (Affibody AB, priority 2019, published 2022).
